# Measurements as given in PubChem BioAssay AID2016 (NMMLSC, 2009).
# Hit rate of the full screen: of about 330,000 compounds, about 1,700 (0.52%) were called active.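 How the source made its calls: active means GFP response versus DMSO above a set limit, roughly screen mean plus 3 SD (cut at about 180% in these data); inconclusive means fewer than 70 cells counted for a yeast strain; inactive means the rest.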 Some structures have more than one record in an assay (separate samples or runs), and their calls can disagree. Certain results were filed several times, with different values. The list is limited to them. An entry can have further records. The values listed for one entry are repeats in other runs, samples, wells, individuals or studies. Brackets tell where a record comes from. The letters are not those of the source and start again with each entry.
# Assay: modulators of MEP2-GFP levels in yeast, primary screen, S. cerevisiae, multiplex flow cytometry, MLPCN library (AID 2016);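 further: median GFP fluorescence of the barcode-gated MEP2-GFP cells per well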
# Details: S. cerevisiae MEP2-GFP strain, 3 h, at 10 µM, stronger effect = higher value, 100% = DMSO control level
row,Structure (SMILES),GFP response vs DMSO
1,O=C(Cn1c[n+](CC(=O)c2ccc([N+](=O)[O-])cc2)cn1)c1ccc([N+](=O)[O-])cc1,inactive: 90.3% [sample A] and active: 222% [may fluoresce violet] [sample B]
